# Laboratory results: the supplement of paper PMC8728848
# This is one part of the list.
# B1: DrGal9 (Danio rerio) (protein)
# chain: MAFYQQPPYYNPRIPFSGPIQGGLQDGKSIIISGRVLPGANRFHVNLQCGSHSEANVALHFNPRYEDTDYVVNNSYLNRTWGSEERKYESPFAQGQTFTLQILVAQDKYKISTNGRHFMDYKHRIPFTQVDTVAVEGMVEVNSVAFQNPAGFIPPQAGYAPQYAVPPGCGFPAFPSAPNYTIPHKTVMNGGLHPGKNIVINGVVNPNAKSIIFNLCYRSGIAFHYNPRFDENVVVRNTNQMEKWGAEERFGGLPFHKGQPFQVTISCNPQHYNVFVNGKQEHTYKHRYTKLNDIDILEICGDLQLTSVQA
# Columns and labels:
# Assay in all cases: glycan array binding signal (z-score within array); higher = stronger binding
# Settings in all cases: glycan notation: IUPAC condensed, linker removed
# Gal(a1-3)Gal = molecular target: Gal(a1-3)Gal
# Summary of the method: (§1)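 Negative Z-scores can be read as non-binding. The Z-score is calculated within each array and then averaged across arrays of one protein sequence at different concentrations or buffers and across linkers. Arrays, 3228 in all, were curated from the Consortium for Functional Glycomics database and kept only where the protein sequence was available.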
# Gal(a1-3)Gal(b1-3)GlcNAc = molecular target: Gal(a1-3)Gal(b1-3)GlcNAc
# Summary of the method: as §1
# [1] = molecular target: Gal(a1-3)Gal(b1-3)GlcNAc(b1-2)Man
# Summary of the method: as §1
# [2] = molecular target: Gal(a1-3)Gal(b1-3)GlcNAc(b1-2)Man(a1-3)[Gal(a1-3)Gal(b1-3)GlcNAc(b1-2)Man(a1-6)]Man(b1-4)GlcNAc(b1-4)GlcNAc
# Summary of the method: as §1
# [3] = molecular target: Gal(a1-3)Gal(b1-3)GlcNAc(b1-3)GalNAc
# Summary of the method: as §1
# [4] = molecular target: Gal(a1-3)Gal(b1-3)GlcNAc(b1-6)GalNAc
# Summary of the method: as §1
# [5] = molecular target: Gal(a1-3)Gal(b1-3)[Fuc(a1-4)]GlcNAc(b1-2)Man(a1-3)[Gal(a1-3)Gal(b1-3)[Fuc(a1-4)]GlcNAc(b1-2)Man(a1-6)]Man(b1-4)GlcNAc(b1-4)GlcNAc
# Summary of the method: as §1
# Gal(a1-3)Gal(b1-4)Glc = molecular target: Gal(a1-3)Gal(b1-4)Glc
# Summary of the method: as §1
# Gal(a1-3)Gal(b1-4)GlcNAc = molecular target: Gal(a1-3)Gal(b1-4)GlcNAc
# Summary of the method: as §1
# [6] = molecular target: Gal(a1-3)Gal(b1-4)GlcNAc(b1-2)Man
# Summary of the method: as §1
# [7] = molecular target: Gal(a1-3)Gal(b1-4)GlcNAc(b1-2)Man(a1-3)[Gal(a1-3)Gal(b1-4)GlcNAc(b1-2)Man(a1-6)]Man(b1-4)GlcNAc(b1-4)GlcNAc
# Summary of the method: as §1
# [8] = molecular target: Gal(a1-3)Gal(b1-4)GlcNAc(b1-3)GalNAc
# Summary of the method: as §1
# [9] = molecular target: Gal(a1-3)Gal(b1-4)GlcNAc(b1-6)GalNAc
# Summary of the method: as §1
# [10] = molecular target: Gal(a1-3)Gal(b1-4)[Fuc(a1-3)]GlcNAc
# Summary of the method: as §1
# [11] = molecular target: Gal(a1-3)Gal(b1-4)[Fuc(a1-3)]GlcNAc(b1-2)Man(a1-3)[Gal(a1-3)Gal(b1-4)[Fuc(a1-3)]GlcNAc(b1-2)Man(a1-6)]Man(b1-4)GlcNAc(b1-4)GlcNAc
# Summary of the method: as §1
# Gal(a1-3)GalNAc = molecular target: Gal(a1-3)GalNAc
# Summary of the method: as §1
# [12] = molecular target: Gal(a1-3)[Gal(a1-4)]Gal(b1-4)GlcNAc
# Summary of the method: as §1
# [13] = molecular target: Gal(a1-4)Gal(b1-3)GlcNAc(b1-2)Man(a1-3)[Gal(a1-4)Gal(b1-3)GlcNAc(b1-2)Man(a1-6)]Man(b1-4)GlcNAc(b1-4)GlcNAc
# Summary of the method: as §1
# Gal(a1-4)Gal(b1-4)Glc = molecular target: Gal(a1-4)Gal(b1-4)Glc
# Summary of the method: as §1
# Gal(a1-4)Gal(b1-4)GlcNAc = molecular target: Gal(a1-4)Gal(b1-4)GlcNAc
# Summary of the method: as §1
# [14] = molecular target: Gal(a1-4)Gal(b1-4)GlcNAc(b1-2)Man(a1-3)[Gal(a1-4)Gal(b1-4)GlcNAc(b1-2)Man(a1-6)]Man(b1-4)GlcNAc(b1-4)GlcNAc
# Summary of the method: as §1
# [15] = molecular target: Gal(a1-4)Gal(b1-4)GlcNAc(b1-3)Gal(b1-4)Glc
# Summary of the method: as §1
# Gal(a1-4)GlcNAc = molecular target: Gal(a1-4)GlcNAc
# Summary of the method: as §1
# Gal(a1-6)Glc = molecular target: Gal(a1-6)Glc
# Summary of the method: as §1
# Gal(b1-2)Gal = molecular target: Gal(b1-2)Gal
# Summary of the method: as §1
# Gal(b1-3)Gal = molecular target: Gal(b1-3)Gal
# Summary of the method: as §1
# Gal(b1-3)Gal(b1-4)GlcNAc = molecular target: Gal(b1-3)Gal(b1-4)GlcNAc
# Summary of the method: as §1
# Gal(b1-3)GalNAc = molecular target: Gal(b1-3)GalNAc
# Summary of the method: as §1
# [16] = molecular target: Gal(b1-3)GalNAc(a1-3)[Fuc(a1-2)]Gal(b1-4)Glc
# Summary of the method: as §1
# [17] = molecular target: Gal(b1-3)GalNAc(a1-3)[Fuc(a1-2)]Gal(b1-4)GlcNAc
# Summary of the method: as §1
# Gal(b1-3)GalNAc(b1-3)Gal = molecular target: Gal(b1-3)GalNAc(b1-3)Gal
# Summary of the method: as §1
# [18] = molecular target: Gal(b1-3)GalNAc(b1-3)Gal(a1-4)Gal(b1-4)Glc
# Summary of the method: as §1
# [19] = molecular target: Gal(b1-3)GalNAc(b1-4)Gal(b1-4)Glc
# Summary of the method: as §1
# [20] = molecular target: Gal(b1-3)GalNAc(b1-4)[Neu5Ac(a2-3)]Gal(b1-4)Glc
# Summary of the method: as §1
# Gal(b1-3)GlcNAc = molecular target: Gal(b1-3)GlcNAc
# Summary of the method: as §1
# [21] = molecular target: Gal(b1-3)GlcNAc(a1-3)Gal(b1-4)GlcNAc
# Summary of the method: as §1
# [22] = molecular target: Gal(b1-3)GlcNAc(a1-6)Gal(b1-4)GlcNAc
# Summary of the method: as §1
# Gal(b1-3)GlcNAc(b1-2)Man = molecular target: Gal(b1-3)GlcNAc(b1-2)Man
# Summary of the method: as §1
binder,measurement,setting,value
B1,glycan array binding signal (z-score),Gal(a1-3)Gal,-0.376
same,glycan array binding signal (z-score),Gal(a1-3)Gal(b1-3)GlcNAc,-0.298
same,glycan array binding signal (z-score),[1],0.337
same,glycan array binding signal (z-score),[2],-0.374
same,glycan array binding signal (z-score),[3],-0.365
same,glycan array binding signal (z-score),[4],-0.113
same,glycan array binding signal (z-score),[5],-0.296
same,glycan array binding signal (z-score),Gal(a1-3)Gal(b1-4)Glc,-0.218
same,glycan array binding signal (z-score),Gal(a1-3)Gal(b1-4)GlcNAc,-0.204
same,glycan array binding signal (z-score),[6],-0.167
same,glycan array binding signal (z-score),[7],2.89
same,glycan array binding signal (z-score),[8],-0.124
same,glycan array binding signal (z-score),[9],-0.342
same,glycan array binding signal (z-score),[10],-0.399
same,glycan array binding signal (z-score),[11],-0.323
same,glycan array binding signal (z-score),Gal(a1-3)GalNAc,-0.367
same,glycan array binding signal (z-score),[12],-0.303
same,glycan array binding signal (z-score),[13],-0.382
same,glycan array binding signal (z-score),Gal(a1-4)Gal(b1-4)Glc,-0.356
same,glycan array binding signal (z-score),Gal(a1-4)Gal(b1-4)GlcNAc,-0.318
same,glycan array binding signal (z-score),[14],-0.247
same,glycan array binding signal (z-score),[15],-0.133
same,glycan array binding signal (z-score),Gal(a1-4)GlcNAc,-0.383
same,glycan array binding signal (z-score),Gal(a1-6)Glc,-0.411
same,glycan array binding signal (z-score),Gal(b1-2)Gal,-0.389
same,glycan array binding signal (z-score),Gal(b1-3)Gal,-0.35
same,glycan array binding signal (z-score),Gal(b1-3)Gal(b1-4)GlcNAc,0.98
same,glycan array binding signal (z-score),Gal(b1-3)GalNAc,-0.351
same,glycan array binding signal (z-score),[16],-0.238
same,glycan array binding signal (z-score),[17],-0.169
same,glycan array binding signal (z-score),Gal(b1-3)GalNAc(b1-3)Gal,0.047
same,glycan array binding signal (z-score),[18],-0.115
same,glycan array binding signal (z-score),[19],-0.117
same,glycan array binding signal (z-score),[20],-0.157
same,glycan array binding signal (z-score),Gal(b1-3)GlcNAc,-0.266
same,glycan array binding signal (z-score),[21],-0.244
same,glycan array binding signal (z-score),[22],-0.319
same,glycan array binding signal (z-score),Gal(b1-3)GlcNAc(b1-2)Man,-0.277
